# Data: a collection of fitness landscapes (doi:10.1016/j.celrep.2020.107928)
# Over roughly 81,000 sequences, “one-hybrid fitness for binding NBS DNA” has its median near -0.1; the highest 2% begin near 0.36. The list shows a part of the results.
# B1: Caulobacter ParB omega fusion; a variant is named by its letters at X, in order, B8GW30 (parent)
# chain: MESVVVGEPGMSEGRRGLGRGLSALLGEVDAAPAQAPGEQLGGSREAPIEILQRNPDQPRRTFREEDLEDLSNSIREKGVLQPILVRPSPDTAGEYQIVAGERAWRAAQRAGLKTVPIMVRELDDLAVLEIGIIENVQRADLNVLEEALSYKVLMEKFERTQENIAQTIGKSXSHVANXMRLLXLPDEVQSYLVSGELTAXHARAIAAAADPVALAKQIIEGGLSVRETEALARKAPNLSAGKSKGGRPPRVKDTDTQALESDLSSVLGLDVSIDHRGSTGTLTITYATLEQLDDLCNRLTRGI
# Variants of: B1
# Experiment: one-hybrid fitness for binding NBS DNA (the Noc-binding site; scaled: cognate 1, non-cognate 0); higher = stronger binding
# Conditions: with NBS DNA site
# In short: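 In E. coli USO, a HIS3 reporter with its site placed 19 bp from the promoter was used to select Caulobacter ParB variants randomised at four specificity codons. Growth lasted 48 hours at 37°C on histidine-free M9 containing 0.1 mM IPTG and 5 mM 3-AT. Fitness was taken as the log change in variant-to-wild-type read ratio from Illumina sequencing of pre- and post-selection plasmids, rescaled between the non-cognate and cognate sites.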
row,Variant,one-hybrid fitness for binding NBS DNA
1,WANR,≤ 0.2
2,QHPF,≤ 0.2
3,NRVE,≤ 0.2
4,NLVV,≤ 0.2
5,YWSM,≤ 0.2
6,TELT,≤ 0.2
7,TIKV,≤ 0.2
8,HAQM,≤ 0.2
9,GMAG,≤ 0.2
10,VWRS,≤ 0.2
11,CQTY,≤ 0.2
12,RGDW,≤ 0.2
13,AWSV,≤ 0.2
14,CPTS,≤ 0.2
15,HHKA,≤ 0.2
16,KFTG,≤ 0.2
17,CFLR,≤ 0.2
18,QQDL,≤ 0.2
19,QLQK,≤ 0.2
20,RIWT,0.279
21,WVWG,≤ 0.2
22,NTKC,≤ 0.2
23,PIGF,≤ 0.2
24,TPNQ,≤ 0.2

row,Variant,one-hybrid fitness for binding NBS DNA
1,SDSM,≤ 0.2
2,ATLW,≤ 0.2
3,DPRM,≤ 0.2
4,QNYM,≤ 0.2
5,QMLT,0.395
6,PLLW,≤ 0.2
7,QKVQ,0.268
8,PVRI,≤ 0.2
9,HMRG,≤ 0.2
10,NTSW,≤ 0.2
11,SKLR,≤ 0.2
12,RLHQ,≤ 0.2
13,MQPF,≤ 0.2
14,HKVT,≤ 0.2
15,CCSG,≤ 0.2
16,VWIT,≤ 0.2
17,PQHC,≤ 0.2
18,SKRI,≤ 0.2
19,SEAE,≤ 0.2
20,NCTD,≤ 0.2
21,CTSI,≤ 0.2
22,PVYE,≤ 0.2
23,QSQV,≤ 0.2
24,ADHY,≤ 0.2

row,Variant,one-hybrid fitness for binding NBS DNA
1,GSAT,≤ 0.2
2,MWML,≤ 0.2
3,HPSY,≤ 0.2
4,HVCR,≤ 0.2
5,QECG,≤ 0.2
6,TAGG,≤ 0.2
7,QRCT,0.806
8,DLFR,≤ 0.2
9,LERS,≤ 0.2
10,RRCM,0.271
11,ISLC,≤ 0.2
12,EHAG,≤ 0.2
13,AAIR,≤ 0.2
14,KFER,≤ 0.2
15,TRSG,≤ 0.2
16,HQWY,≤ 0.2
17,YVAT,≤ 0.2
18,PCDR,≤ 0.2
19,PHQS,≤ 0.2
20,GTVL,≤ 0.2
21,YKTA,≤ 0.2
22,QMWH,≤ 0.2
23,QSMV,≤ 0.2
24,LSKC,≤ 0.2

row,Variant,one-hybrid fitness for binding NBS DNA
1,QWKD,≤ 0.2
2,DYYG,≤ 0.2
3,FRNM,≤ 0.2
4,RHFD,≤ 0.2
5,EWHL,≤ 0.2
6,KMPR,≤ 0.2
7,HSIS,≤ 0.2
8,TSAN,≤ 0.2
9,LSES,≤ 0.2
10,QNRI,≤ 0.2
11,WNRT,≤ 0.2
12,WAVV,≤ 0.2
13,SFSV,≤ 0.2
14,WLGT,≤ 0.2
15,LCGT,≤ 0.2
16,WVMR,≤ 0.2
17,DYLK,≤ 0.2
18,LVHG,≤ 0.2
19,QNDI,≤ 0.2
20,PIPT,≤ 0.2
21,GDGT,≤ 0.2
22,RGHH,≤ 0.2
23,AAQS,≤ 0.2
24,CQVK,≤ 0.2

row,Variant,one-hybrid fitness for binding NBS DNA
1,GGRG,≤ 0.2
2,ELYC,≤ 0.2
3,WLLD,≤ 0.2
4,HYDT,≤ 0.2
5,SYFL,≤ 0.2
6,PGDS,≤ 0.2
7,MRKY,≤ 0.2
8,NCAI,0.216
9,PTSF,≤ 0.2
10,MPCG,≤ 0.2
11,RGLP,≤ 0.2
12,FAAI,≤ 0.2
13,YHES,≤ 0.2
14,KGHM,≤ 0.2
15,RHKA,0.333
16,HCAY,≤ 0.2
17,FRYG,≤ 0.2
18,GLHR,≤ 0.2
19,QLSK,≤ 0.2
20,PPRY,≤ 0.2
21,KMPT,≤ 0.2
22,PITI,≤ 0.2
23,NMFR,≤ 0.2
24,NTSI,≤ 0.2

row,Variant,one-hybrid fitness for binding NBS DNA
1,KINR,≤ 0.2
2,AWIY,≤ 0.2
3,DLNL,≤ 0.2
4,SRSL,≤ 0.2
5,TDCL,≤ 0.2
6,PSNM,≤ 0.2
7,CTHL,≤ 0.2
8,PLTY,≤ 0.2
9,TRHF,≤ 0.2
10,ELAY,≤ 0.2
11,KQKY,≤ 0.2
12,AYNA,≤ 0.2
13,CLPR,≤ 0.2
14,AEIT,≤ 0.2
15,DKYI,≤ 0.2
16,CFPG,≤ 0.2
17,PQPD,≤ 0.2
18,AEKT,≤ 0.2
19,AHDP,≤ 0.2
20,CLRN,≤ 0.2
21,ARMN,≤ 0.2
22,EQAT,≤ 0.2
23,RSSC,≤ 0.2
24,NEMT,≤ 0.2

row,Variant,one-hybrid fitness for binding NBS DNA
1,PRAS,≤ 0.2
2,SSLK,≤ 0.2
3,THLT,≤ 0.2
4,VPTI,≤ 0.2
5,MNMN,≤ 0.2
6,MSTG,≤ 0.2
7,GFYS,≤ 0.2
8,CTTK,≤ 0.2
9,QCCI,≤ 0.2
10,SAQL,≤ 0.2
11,HKVR,≤ 0.2
12,IVAR,≤ 0.2
13,GDDR,≤ 0.2
14,AVFS,≤ 0.2
15,TKSL,≤ 0.2
16,PHAN,≤ 0.2
17,KRCE,≤ 0.2
18,SHAG,≤ 0.2
19,KPPT,≤ 0.2
20,DIQM,≤ 0.2
21,GKGD,≤ 0.2
22,WSIM,≤ 0.2
23,RTIP,≤ 0.2
24,RKPS,≤ 0.2

row,Variant,one-hybrid fitness for binding NBS DNA
1,GHTR,≤ 0.2
2,IWST,≤ 0.2
3,QKWT,0.454
4,YAHS,≤ 0.2
5,TFPR,≤ 0.2
6,RPCN,≤ 0.2
7,RLVR,0.257
8,VLKN,≤ 0.2
9,GPVL,≤ 0.2
10,HANM,≤ 0.2
11,QTCK,≤ 0.2
12,FQRN,≤ 0.2
13,RQVL,≤ 0.2
14,LSNV,≤ 0.2
15,SNPC,≤ 0.2
16,THMM,≤ 0.2
17,MIQC,≤ 0.2
18,SKRC,≤ 0.2
19,QPPM,≤ 0.2
20,VLMV,≤ 0.2
21,RTGL,≤ 0.2
22,TALR,≤ 0.2
23,VIYV,≤ 0.2
24,YPQI,≤ 0.2

row,Variant,one-hybrid fitness for binding NBS DNA
1,GCSW,≤ 0.2
2,KNHR,≤ 0.2
3,APFW,≤ 0.2
4,RGTE,≤ 0.2
5,SMLW,≤ 0.2
6,ITDL,≤ 0.2
7,PKPY,≤ 0.2
8,QVNR,0.465
9,SAWW,≤ 0.2
10,ALRW,≤ 0.2
11,TIPH,≤ 0.2
12,GERN,≤ 0.2
13,RISA,≤ 0.2
14,PRRK,≤ 0.2
15,NVYG,≤ 0.2
16,QAGN,≤ 0.2
17,LSQE,≤ 0.2
18,NKTI,≤ 0.2
19,RGQY,≤ 0.2
20,TGAD,≤ 0.2
21,RVID,≤ 0.2
22,SDQS,≤ 0.2
23,NVDE,≤ 0.2
24,TESQ,≤ 0.2

row,Variant,one-hybrid fitness for binding NBS DNA
1,QLVY,≤ 0.2
2,LKPS,≤ 0.2
3,PDLY,≤ 0.2
4,SFTH,≤ 0.2
5,RNNA,≤ 0.2
6,SSRQ,≤ 0.2
7,HREV,≤ 0.2
8,MEYG,≤ 0.2
9,EGLW,≤ 0.2
10,IGTC,≤ 0.2
11,PPWL,≤ 0.2
12,IACM,≤ 0.2
13,YDLL,≤ 0.2
14,RNFK,≤ 0.2
15,AIVF,≤ 0.2
16,TGPG,≤ 0.2
17,FMTN,≤ 0.2
18,HHDS,≤ 0.2
19,LTPL,≤ 0.2
20,LRHV,≤ 0.2
21,RSKR,0.682
22,DKVC,≤ 0.2
23,NMNR,≤ 0.2
24,SRIQ,≤ 0.2

row,Variant,one-hybrid fitness for binding NBS DNA
1,PPPS,≤ 0.2
2,LHKL,≤ 0.2
3,EAFW,≤ 0.2
4,YLQA,≤ 0.2
5,VRRC,≤ 0.2
6,RMCA,≤ 0.2
7,LHAW,≤ 0.2
8,MVPT,≤ 0.2
9,DSER,≤ 0.2
10,TPWV,≤ 0.2
11,QSLS,0.263
12,RNKS,0.489
13,LILI,≤ 0.2
14,TKFL,≤ 0.2
15,SFYT,≤ 0.2
16,KKSV,≤ 0.2
17,DQTP,≤ 0.2
18,CVKL,≤ 0.2
19,ASSH,≤ 0.2
20,NQKG,≤ 0.2
21,LIYY,≤ 0.2
22,QKNY,0.26
23,DYEI,≤ 0.2
24,KADV,≤ 0.2

row,Variant,one-hybrid fitness for binding NBS DNA
1,PAGN,≤ 0.2
2,PFHI,≤ 0.2
3,QAKE,0.256
4,ILDS,≤ 0.2
5,RQLD,≤ 0.2
6,NTCW,≤ 0.2
7,SLYY,≤ 0.2
8,GSGE,≤ 0.2
9,QGRF,≤ 0.2
10,LIKI,≤ 0.2
11,GYFG,≤ 0.2
12,DPGV,≤ 0.2
13,RIQC,≤ 0.2
14,MLWM,≤ 0.2
15,WMLG,≤ 0.2
16,DQYS,≤ 0.2
17,GSTW,≤ 0.2
18,RSEE,≤ 0.2
19,FCTG,≤ 0.2
20,QDLW,≤ 0.2
21,TDSV,≤ 0.2
22,HNLN,≤ 0.2
23,QTVW,≤ 0.2
24,RWHK,≤ 0.2

row,Variant,one-hybrid fitness for binding NBS DNA
1,IDCI,≤ 0.2
2,GRWG,≤ 0.2
3,WKPG,≤ 0.2
4,RKTY,0.217
5,LCCF,≤ 0.2
6,LRRD,≤ 0.2
7,RSIG,≤ 0.2
8,SCRT,≤ 0.2
9,LRRR,0.483
10,CDVV,≤ 0.2
11,PDAV,≤ 0.2
12,CRAW,≤ 0.2
13,VTAN,≤ 0.2
14,ALAY,≤ 0.2
15,FSPY,≤ 0.2
16,VARR,≤ 0.2
17,PEEM,≤ 0.2
18,ATEM,≤ 0.2
